Reference: PubChem BioAssay AID1961 (Sanford-Burnham Center for Chemical Genomics, 2009)
Among all 290,000 compounds or so, about 140 (0.048%) were called active. The shares of active, inactive and inconclusive entries below differ from those in the screen.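 How the source made its calls: active means activation above 40% with more than 50 cells counted in the well; inconclusive means wells holding fewer than 50 cells, flagged as toxic or sparse; inactive means the rest.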

Each molecule was assayed against G-protein coupled receptor 55 (Homo sapiens) (UniProt Q9Y2T6) (assay: selective activators of receptor GPR55 – imaging, U2OS cells, beta-arrestin-GFP redistribution, primary screen (AID 1961;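 further: U2OS osteosarcoma cells stably expressing GPR55 and beta-arrestin-GFP; plate controls were DMSO negative control for no effect and LPI positive control for full effect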)). Details: at 10 µM, active compounds read high.
Chain of UniProt Q9Y2T6 (Q9Y2T6 whole entry, looked up): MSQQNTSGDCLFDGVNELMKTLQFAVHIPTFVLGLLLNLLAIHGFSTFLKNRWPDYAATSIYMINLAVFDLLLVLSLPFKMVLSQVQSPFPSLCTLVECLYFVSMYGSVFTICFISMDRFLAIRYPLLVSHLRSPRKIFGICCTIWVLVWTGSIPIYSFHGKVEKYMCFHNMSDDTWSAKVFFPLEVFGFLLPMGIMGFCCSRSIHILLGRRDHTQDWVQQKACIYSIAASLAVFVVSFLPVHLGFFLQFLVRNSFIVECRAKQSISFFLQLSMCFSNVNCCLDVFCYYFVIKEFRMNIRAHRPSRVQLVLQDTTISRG

| Compound | activation |
| --- | --- |
| CN1/C(=C\C=C2C(=O)NC(=S)NC2=O)C(C)(C)c2ccccc21 | active: 57.7% |
| O=C(c1cc(Br)ccc1Cl)N1CCC2(CC1)OCCO2 | inconclusive: -0.2% |
| C/C(=N\Nc1ccccc1)c1c(O)n(Cc2ccccc2)c(=O)[nH]c1=O | inconclusive: -0.2% |
| CN1C(=O)N(C)C(=O)C2(Cc3cc([N+](=O)[O-])ccc3N3CCN(C(=O)c4ccccc4)CC32)C1=O (stereo unspecified) | inconclusive: 0% |
| CN1/C(=C\C=Nc2ccccc2)C(C)(C)c2ccccc21 | inactive: -0.1% |
| CC(=Nc1ccccc1N)c1c(O)n(C)c(=O)[nH]c1=O | inactive: 0.7% |
| Cc1nnc(SCc2nc3ccccc3c(=O)n2-c2ccccc2Cl)n1N | inconclusive: -0.2% |
| CCCCN=Cc1c(O)n(-c2c(C)cc(C)cc2C)c(=O)[nH]c1=O | inconclusive: 23.3% |
| CN1/C(=C\C=C2C(=O)NC(=O)NC2=O)C(C)(C)c2ccccc21 | inactive: 0.4% |
| CCc1nc2ccccc2c(=O)n1-c1ccccc1[N+](=O)[O-] | inconclusive: -0.1% |
| N[C@@H](Cc1c[nH]c2ccccc12)c1nnc(SCc2ccc(Cl)cc2)o1 | inactive: 0.1% |
